Laboratory results from a collection of fitness landscapes (doi:10.1038/s41467-024-54723-y).
Over roughly 18,000 sequences, “TetR repression strength (sort-seq, GFP reporter)” has its median near 0.23; the highest 2% begin near 0.68. This is one part of the list.

Each sequence was assayed against TetR (class B, Tn10) (UniProt P04483) (assay: TetR repression strength (sort-seq, GFP reporter) (relative to tetO2 = 1); higher = stronger repression). Conditions: E. coli.
UniProt P04483, sequence (P04483 whole entry): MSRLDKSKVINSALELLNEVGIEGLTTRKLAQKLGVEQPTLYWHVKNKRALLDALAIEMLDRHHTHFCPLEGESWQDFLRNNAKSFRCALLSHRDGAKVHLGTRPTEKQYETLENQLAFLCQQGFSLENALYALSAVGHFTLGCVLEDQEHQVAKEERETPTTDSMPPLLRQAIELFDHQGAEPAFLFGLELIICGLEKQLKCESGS
Summary of the method: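 Repression strength is the top bin index plus one minus the read-weighted mean bin, relative to the unaltered operator's value. A low-copy library in E. coli SIG10-MAX randomized eight operator positions between a constitutive promoter and sfGFP, with TetR expressed constitutively; cells grew 5 h at 37 °C in LB with 50 µg/mL chloramphenicol and 10^6 were FACS-sorted into 13 bins that were each Illumina-sequenced. Three independent transformations were averaged, keeping only members with ≥30 reads in all replicates and CV ≤0.5.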
TCCCTACAAGTACAGGAGA was tested, and the TetR repression strength was 0.249.
Sequence TCCCCGTAAGTGCGTGAGA has a TetR repression strength of 0.269.
TCCCATCTAGTACGGGAGA gave a TetR repression strength of 0.134.
TCCCTCACAGTTCCTGAGA showed a TetR repression strength of 0.368.
In the case of TCCCTGCGAGTCCCTGAGA, the TetR repression strength is reported as 0.194.
Work on TCCCCTGAAGTGGTGGAGA yielded a TetR repression strength of 0.0248.
With TCCCCACAAGTGGGGGAGA the TetR repression strength was 0.157.
TCCCCGAAAGTGGTTGAGA was tested, and the TetR repression strength was 0.272.
With TCCCATAAAGTTAGTGAGA the TetR repression strength was 0.0787.
For TCCCTAATAGTGTTCGAGA, the TetR repression strength was 0.362.
In the case of TCCCATGGAGTGATAGAGA, the TetR repression strength is reported as 0.548.
TCCCTTGCAGTGTACGAGA gave a TetR repression strength of 0.204.
Sequence TCCCCTTTAGTATACGAGA has a TetR repression strength of 0.259.
For TCCCAAGTAGTAGTAGAGA, the TetR repression strength was 0.0243.
TCCCCCCGAGTGATCGAGA showed a TetR repression strength of 0.162.
TCCCGTTTAGTCTCTGAGA was tested, and the TetR repression strength was 0.0895.
TCCCTAGGAGTGTCTGAGA showed a TetR repression strength of 0.134.
TCCCAGTGAGTAGTCGAGA was tested, and the TetR repression strength was 0.212.
With TCCCAGCTAGTAGTCGAGA the TetR repression strength was 0.463.
Work on TCCCCGCTAGTCGTGGAGA yielded a TetR repression strength of 0.216.
TCCCTGAGAGTTATGGAGA gave a TetR repression strength of 0.0707.
TCCCCGCTAGTGGCGGAGA was tested, and the TetR repression strength was 0.229.
Work on TCCCTTGAAGTGGTTGAGA yielded a TetR repression strength of 0.261.
With TCCCAGGGAGTCTTCGAGA the TetR repression strength was 0.16.
In the case of TCCCTGTAAGTGAGGGAGA, the TetR repression strength is reported as 0.157.
For TCCCTAGCAGTTTCTGAGA, the TetR repression strength was 0.
With TCCCGTGAAGTGACGGAGA the TetR repression strength was 0.297.
TCCCCTGAAGTTGCGGAGA showed a TetR repression strength of 0.0976.
For TCCCCGTGAGTTTTTGAGA, the TetR repression strength was 0.286.
TCCCATAAAGTCAGTGAGA was tested, and the TetR repression strength was 0.311.
TCCCACCAAGTGAGGGAGA was tested, and the TetR repression strength was 0.324.
Work on TCCCCCACAGTAAGAGAGA yielded a TetR repression strength of 0.158.
TCCCAGATAGTTCAGGAGA gave a TetR repression strength of 0.474.
Work on TCCCGTAAAGTGAGAGAGA yielded a TetR repression strength of 0.207.
In the case of TCCCGTTTAGTATGGGAGA, the TetR repression strength is reported as 0.225.
In the case of TCCCGGAAAGTATACGAGA, the TetR repression strength is reported as 0.207.
TCCCAAGGAGTGAAAGAGA gave a TetR repression strength of 0.213.
Work on TCCCCGACAGTAGTCGAGA yielded a TetR repression strength of 0.233.
With TCCCTCTGAGTCATAGAGA the TetR repression strength was 0.207.
For TCCCGGGGAGTGTTCGAGA, the TetR repression strength was 0.331.
In the case of TCCCAATGAGTTGTGGAGA, the TetR repression strength is reported as 0.19.
In the case of TCCCGGGTAGTCTAGGAGA, the TetR repression strength is reported as 0.199.
TCCCTGAAAGTAGTAGAGA was tested, and the TetR repression strength was 0.597.
TCCCATGCAGTATGGGAGA showed a TetR repression strength of 0.192.
Work on TCCCATTTAGTCCGGGAGA yielded a TetR repression strength of 0.181.
With TCCCTGAGAGTGAGGGAGA the TetR repression strength was 0.246.
In the case of TCCCGGACAGTTAGAGAGA, the TetR repression strength is reported as 0.456.
In the case of TCCCAGCAAGTTTGGGAGA, the TetR repression strength is reported as 0.222.
Work on TCCCAGAGAGTTTGAGAGA yielded a TetR repression strength of 0.278.
TCCCGGATAGTGCTTGAGA gave a TetR repression strength of 0.127.
Sequence TCCCCAATAGTATTGGAGA has a TetR repression strength of 0.224.
TCCCTGGTAGTTACTGAGA was tested, and the TetR repression strength was 0.215.
TCCCGCGAAGTAACCGAGA showed a TetR repression strength of 0.211.
With TCCCAAGCAGTATGCGAGA the TetR repression strength was 0.102.
In the case of TCCCCGTAAGTTGCAGAGA, the TetR repression strength is reported as 0.216.
TCCCGTATAGTGAGGGAGA was tested, and the TetR repression strength was 0.0277.
TCCCCACAAGTCGGAGAGA showed a TetR repression strength of 0.341.
For TCCCTGCTAGTTGGAGAGA, the TetR repression strength was 0.285.
TCCCGCAAAGTCGGCGAGA gave a TetR repression strength of 0.202.
TCCCTCAGAGTGGGGGAGA showed a TetR repression strength of 0.144.
For TCCCCGTGAGTCTGAGAGA, the TetR repression strength was 0.215.
With TCCCAAATAGTTCCTGAGA the TetR repression strength was 0.246.
In the case of TCCCCAGTAGTGAAAGAGA, the TetR repression strength is reported as 0.331.
TCCCATGAAGTGGGGGAGA showed a TetR repression strength of 0.0668.
TCCCTGAAAGTAGAGGAGA was tested, and the TetR repression strength was 0.0426.
Work on TCCCGGGGAGTTGCTGAGA yielded a TetR repression strength of 0.261.
With TCCCACGAAGTTCCAGAGA the TetR repression strength was 0.319.
TCCCGTATAGTTTCCGAGA gave a TetR repression strength of 0.434.
With TCCCTTGGAGTCGTCGAGA the TetR repression strength was 0.511.
For TCCCCAGAAGTATCGGAGA, the TetR repression strength was 0.213.
TCCCCTTTAGTTGTAGAGA showed a TetR repression strength of 0.246.
TCCCTCGAAGTTTTCGAGA gave a TetR repression strength of 0.415.
For TCCCTGGCAGTTGATGAGA, the TetR repression strength was 0.204.
With TCCCTATTAGTGGGGGAGA the TetR repression strength was 0.358.
TCCCGAGAAGTCAGTGAGA gave a TetR repression strength of 0.232.
For TCCCAGGGAGTGATAGAGA, the TetR repression strength was 0.424.
For TCCCGTCAAGTTAAGGAGA, the TetR repression strength was 0.279.
In the case of TCCCGGTTAGTACATGAGA, the TetR repression strength is reported as 0.194.
Sequence TCCCGAGCAGTCGAGGAGA has a TetR repression strength of 0.143.
In the case of TCCCCTGCAGTGCATGAGA, the TetR repression strength is reported as 0.0312.
TCCCTACTAGTGGGCGAGA gave a TetR repression strength of 0.362.
For TCCCACTGAGTTGGAGAGA, the TetR repression strength was 0.16.
With TCCCAAACAGTGTATGAGA the TetR repression strength was 0.0683.
Sequence TCCCGCCCAGTACTAGAGA has a TetR repression strength of 0.207.
TCCCCCAAAGTTTTAGAGA showed a TetR repression strength of 0.263.
Sequence TCCCAACTAGTCACAGAGA has a TetR repression strength of 0.207.
With TCCCTGTGAGTGCCTGAGA the TetR repression strength was 0.088.
TCCCAGAGAGTAGGCGAGA gave a TetR repression strength of 0.466.
TCCCGTATAGTGACCGAGA was tested, and the TetR repression strength was 0.254.
In the case of TCCCTGGTAGTCATGGAGA, the TetR repression strength is reported as 0.341.
Work on TCCCACGCAGTCTAGGAGA yielded a TetR repression strength of 0.321.
TCCCCGGGAGTGCGGGAGA gave a TetR repression strength of 0.125.
Work on TCCCGACCAGTGCAGGAGA yielded a TetR repression strength of 0.805.
In the case of TCCCGTATAGTGAGCGAGA, the TetR repression strength is reported as 0.081.
With TCCCGCGGAGTACGAGAGA the TetR repression strength was 0.0554.
TCCCAGTCAGTCGTGGAGA gave a TetR repression strength of 0.332.
With TCCCAGTTAGTTCGAGAGA the TetR repression strength was 0.263.
TCCCGAGAAGTTGTTGAGA gave a TetR repression strength of 0.27.
Work on TCCCGCTCAGTTATAGAGA yielded a TetR repression strength of 0.764.
Work on TCCCGCATAGTGGGCGAGA yielded a TetR repression strength of 0.0241.
Sequence TCCCATCTAGTCAGGGAGA has a TetR repression strength of 0.305.
TCCCAAGTAGTTGTTGAGA showed a TetR repression strength of 0.101.
